Source: the supplement of paper PMC10600219
Where a name gives a salt, the structure may show the parent alone. The full ranking holds about 2,800 compounds; the median of “cell viability relative to vehicle” is about 0.98, and the lowest 2% start at about 0.45. Some of the results follow.

Each molecule was assayed on NCI-H2228 alectinib-DTP (assay: cell viability relative to vehicle (fraction of vehicle); NCI-H2228 is an ALK-positive lung cancer line and DTP means drug-tolerant persister; higher = less growth inhibition). Settings: 100 nM; treatment time 6 days.
Method in brief: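 Drug-tolerant persister NCI-H2228 cells, produced by 13 days in 1000 nM of a targeted drug, and their parental counterparts were seeded into 384-well plates and, the following day, given the 3114-agent TargetMol anti-cancer compound library at 100 nM or DMSO vehicle. After 6 days, the CellTiter-Glo 3D Cell Viability Assay was used to read ATP. Each entry reports viability compared with vehicle-treated cells.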

SMILES | cell viability
CN1CCC(=C2c3ccccc3CCc3cccnc32)CC1 [Azatadine Maleate] | 0.959
COc1ccc2c(c1)c(CC(=O)O)c(C)n2C(=O)c1ccc(Cl)cc1 [Indometacin] | 1.02
CC(C)C[C@H](NC(=O)[C@@H](NC(=O)c1cccc(-c2ccccc2)n1)[C@@H](C)O)B(O)O [Delanzomib] | 0.301
CNC(=O)c1cc(Oc2ccc(NC(=O)Nc3cc(C(C)(C)C)nn3-c3ccc4ncccc4c3)c(F)c2)ccn1 | 1.02
OC[C@H]1O[C@H](O[C@]2(CCl)O[C@H](CCl)[C@@H](O)[C@@H]2O)[C@H](O)[C@@H](O)[C@H]1Cl [Sucralose] | 0.957
CCC/N=C1\S/C(=C\c2ccc(OC[C@H](O)CO)c(Cl)c2)C(=O)N1c1ccccc1C [Ponesimod] | 1.21
CC(C)OC(=O)N1CCC(Oc2ncnc3c2cnn3-c2ccc(S(C)(=O)=O)cc2F)CC1 | 0.961
Cc1ccc(C2Nc3ccccc3-n3c(-c4ccccc4)c4c(=O)n(C)c(=O)n(C)c4c32)o1 (configuration not stated) | 1.04
O=C(Nc1ccccc1C(=O)NC1CCCCNC1=O)c1cc2ccccc2s1 (configuration not stated) | 0.882
O=C1N[C@](c2ccc(N3CCOCC3)cc2)(c2ccsc2)CC(O)=C1Sc1ccccc1Cl | 0.925
COc1cc2nccc(Oc3ccc(NC(=O)Nc4cc(C)on4)c(Cl)c3)c2cc1OC [Tivozanib] | 1.12
CC(C)(C#N)c1cc(Cn2cncn2)cc(C(C)(C)C#N)c1 [Anastrozole] | 1.12
c1cnoc1 [Isoxazole] | 1.05
Oc1c(I)cc(Cl)c2cccnc12 [Clioquinol] | 1.09
COc1cccc(-c2cc(=O)c3ccccc3o2)c1N | 0.954
CN(C)CCOC(C)(c1ccccc1)c1ccccn1 (configuration not stated) [Doxylamine succinate] | 1.04
C=CCNC(N)=S [Allylthiourea] | 1.11
CNC(=O)c1cccc(-c2ccc3c(N4CCOC[C@@H]4C)nc(N4CCOC[C@@H]4C)nc3n2)c1 [Vistusertib] | 0.594
N#Cc1cccc(-c2c[nH]c3ncnc(N4CCOCC4)c23)c1 | 0.975
O=C(CCc1ccc(O)cc1)c1c(O)cc(O)cc1O [Phloretin] | 0.99
Cc1cn(CCN2CCN(c3ccccc3-c3cc(C#N)cc(C(=O)NCCCN4CCCC4)c3)CC2)c2ccccc12 | 1.19
NC(=O)c1cccc2cn(-c3ccc([C@@H]4CCCNC4)cc3)nc12 [Niraparib] | 0.969
OC(CNCC(O)C1CCc2cc(F)ccc2O1)C1CCc2cc(F)ccc2O1 (configuration not stated) [Nebivolol hydrochloride] | 1.12
CN(CC(=O)N(Cc1ccc(C2CCCCC2)cc1)c1ccc(C(=O)O)cc1)S(=O)(=O)c1c(F)c(F)c(F)c(F)c1F | 1.09
O=C(NCc1ccccc1)c1csc(Nc2ccncn2)n1 [Thiazovivin] | 0.84
C=CC(=O)Nc1cc2c(Nc3ccc(F)c(Cl)c3)ncnc2cc1OCCCN1CCOCC1 [Canertinib dihydrochloride] | 0.8

SMILES | cell viability
COC[C@H]1C[C@@H](c2nc(-c3ccc4c(c3)COc3cc5c(ccc6nc([C@@H]7CC[C@H](C)N7C(=O)[C@@H](NC(=O)OC)C(C)C)[nH]c65)cc3-4)c[nH]2)N(C(=O)[C@H](NC(=O)OC)c2ccccc2)C1 [Velpatasvir] | 0.887
C=CC(=O)Nc1ccc(CN(C(=O)Nc2c(Cl)c(OC)cc(OC)c2Cl)c2cc(Nc3ccc(N4CCN(C)CC4)cc3)ncn2)cc1 | 0.625
COc1ccc(OC)c(C(O)CNC(=O)CN)c1 (configuration not stated) [Midodrine hydrochloride] | 0.808
CNCc1ccc(-c2cc(-c3nc(-c4ccc(S(=O)(=O)C(C)C)cc4)cnc3N)on2)cc1 [Berzosertib] | 0.948
O=c1ccc2ccc(OCCCCN3CCN(c4cccc5sccc45)CC3)cc2[nH]1 [Brexpiprazole] | 1.1
CC1C(=O)OC2C(O)C34C5CC(C(C)(C)C)C36C(OC(=O)C6O)OC4(C(=O)O5)C12O (configuration not stated) [Ginkgolide B] | 1.03
C[N+](C)(C)CCCCCC[N+](C)(C)C [Hexamethonium Bromide] | 0.884
CN(C)/N=N/c1[nH]cnc1C(N)=O [Dacarbazine] | 0.984
CN1C(C)(C)CCCC1(C)C [Pempidine] | 1.12
Cn1cc(-c2ccc3ncc(Cc4ccc5ncccc5c4)n3n2)cn1 | 0.85
CC(CCc1ccccc1)NCC(O)c1ccc(O)c(C(N)=O)c1 (configuration not stated) [Labetalol hydrochloride] | 1.08
CCOC(=O)[C@H](CCc1ccccc1)N[C@@H](C)C(=O)N1Cc2ccccc2C[C@H]1C(=O)O [Quinapril hydrochloride] | 0.969
Cc1cn([C@H]2O[C@@H](CO)[C@H](O)[C@H]2F)c(=O)[nH]c1=O [Clevudine] | 0.977
COc1ccc(C(Cl)=C(c2ccc(OC)cc2)c2ccc(OC)cc2)cc1 [Chlorotrianisene] | 0.925
Cc1oncc1C(=O)Nc1ccc(C(F)(F)F)cc1 [Leflunomide] | 0.981
O=C(O)c1cccnc1Nc1cccc(C(F)(F)F)c1 [Niflumic acid] | 1.08
O=C1[C@H](Cc2ccc(O)cc2)N2C(=O)CCN(C(=O)NCc3ccccc3)[C@H]2CN1Cc1cccc2ccccc12 | 1.07
COc1ccc(-c2oc3cc(O)cc(O)c3c(=O)c2O)cc1 [kaempferide] | 1.06
CCn1c2ccccc2c2cc(Nc3ccnc(NCCCN4CCOCC4)n3)ccc21 | 0.949
CC1(C)S[C@@H]2[C@H](NC(=O)[C@H](NC(=O)N3CCNC3=O)c3ccccc3)C(=O)N2[C@H]1C(=O)O [Azlocillin sodium] | 0.986
CC(C)c1ccc2oc3nc(N)c(C(=O)O)cc3c(=O)c2c1 [Amlexanox] | 0.992
COC(=O)Nc1nc2cc(C(=O)c3ccccc3)ccc2[nH]1 [Mebendazole] | 0.908
Nc1nc2c(ncn2[C@@H]2O[C@H](CO)[C@@H](O)[C@H]2O)c(=O)[nH]1 [Guanosine] | 0.994
Clc1cnccn1 [2-Chloropyrazine] | 0.962
Cc1c(NC(=O)c2cc(C(N)=O)nc3cc(F)ccc23)c(C(F)(F)F)nn1Cc1ccc(C#N)cc1 | 0.869
Cc1cc2c(cc1S(N)(=O)=O)S(=O)(=O)CCC2 [Meticrane] | 0.903
